{"source": "PubChem BioAssay AID686978", "about": "(National Center for Advancing Translational Sciences (NCATS), 2013)", "note": "The campaign covered roughly 420,000 compounds. About 64,000 (15%) were called active. The inconclusive results got no clear call from the source; some entries with a clear call stand among them for comparison. The call rests on the fitted dose curve; in most records, active means well fitted inhibition curve with a large enough effect; inconclusive means small, poorly fitted or top-dose-only effect; inactive means flat fitted curve, though single readings scatter. Potencies of inconclusive entries are left out as doubtful fits. On the % scale 0 is the no-effect control and ±100 the full control effect; potency means the concentration at half of the fitted maximal effect; tags describe the fitted curve by direction and shape.", "data": [{"assay": "qHTS for Inhibitors of human tyrosyl-DNA phosphodiesterase 1 (TDP1): qHTS in cells in absence of CPT; further: nearly all actives have a fitted effect of over 55% in size", "details": "DT40 Tdp1-/- hTDP1 cells, no CPT, ATP luminescence, 48 h; activity change, negative = growth inhibition: at 46.2 µM (top of the series) unless noted", "how_it_was_run": "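Stably hTDP1-transfected Tdp1-null chicken DT40 cells were treated with library compounds minus camptothecin and grown for at least 48 hr at 37 °C, after which cellular ATP was quantified by luminescence.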", "values": [{"smiles": "O=C(CN1CCN(c2ccccc2F)CC1)c1ccc(O)c(O)c1", "Potency": "active: 10.3 µM"}, {"smiles": "O=c1ccc2ccc(OCc3nnc(-c4ccccc4Br)o3)cc2o1", "Potency": "inconclusive [inhibitor, partial curve, poor fit]"}, {"smiles": "N=c1oc2ccc(Br)cc2cc1C(=O)NCc1ccccc1", "Potency": "inconclusive [inhibitor, single point]"}, {"smiles": "CSc1ncc(CN2CCN(C3CCN(C(C)C)CC3)C(CCO)C2)cn1", "note": "(stereo not given)", "Potency": "inactive"}, {"smiles": "CCCCN(CCCC)C1=C(C(=O)c2ccccc2)N(C)S(=O)(=O)c2ccccc21", "Potency": "inconclusive [inhibitor, single point]"}, {"smiles": "COc1ccc(NS(=O)(=O)c2cc(NC(=O)c3nc4nc(C)cc(C)n4n3)ccc2C)cc1", "Potency": "inconclusive [inhibitor, single point]"}, {"smiles": "CC12CCC(=O)N1C(C(=O)Nc1ccc(Br)cc1Cl)CS2", "note": "(stereo not given)", "Potency": "inactive"}, {"smiles": "COc1cc(-c2c(C(=O)c3ccccc3)[nH]c(N)c2C(N)=O)ccc1F", "Potency": "inconclusive [inhibitor, single point]"}, {"smiles": "Cc1ccccc1CNC(=O)CN(c1cccc(C)c1C)S(C)(=O)=O", "Potency": "inconclusive [inhibitor, single point]"}, {"smiles": "CN1C(=O)c2cccc3c(S(=O)(=O)N4CCCC4C(=O)O)ccc1c23", "note": "(stereo not given)", "Potency": "inactive"}, {"smiles": "OCCCn1c(C2CCCN2c2nc(-c3ccc(Cl)cc3)cs2)nc2cc(Cl)c(Cl)cc21", "note": "(stereo not given)", "Potency": "inconclusive [inhibitor, partial curve]"}, {"smiles": "Cc1cccc(N2CCN(C(=O)C3COc4ccccc4O3)CC2)c1C", "note": "(stereo not given)", "Potency": "inconclusive [inhibitor, single point]"}, {"smiles": "O=C(Nc1ccc(NC(=O)c2cccnc2Cl)cc1)c1cccc(Cl)c1", "Potency": "inconclusive [inhibitor, single point]"}, {"smiles": "Cc1c(C(=O)NCc2ccco2)sc2nc(-c3ccccc3)cn12", "Potency": "inconclusive [inhibitor, single point]"}, {"smiles": "O=C(OCc1nnc(-c2ccccc2)o1)c1cc(F)c(F)cc1Cl", "Potency": "inactive"}, {"smiles": "O=C(Nc1nccs1)c1cnccn1", "Potency": "inactive"}, {"smiles": "Cc1ccc(/C=C/C(=O)NC(=S)N2CCN(C)CC2)cc1", "Potency": "inactive"}, {"smiles": "O=C(Cc1ccc(Br)cc1)Nc1ccccc1N1CCCC1", "Potency": "inconclusive [inhibitor, single point]"}, {"smiles": "Cc1cc(S(=O)(=O)NCC(C)C)ccc1OCC(=O)NCc1ccccn1", "Potency": "inactive"}, {"smiles": "COc1ccc(C(=O)NC(=S)NCc2ccco2)cc1Br", "Potency": "inconclusive [inhibitor, partial curve]"}, {"smiles": "COc1ccc(N(CC(=O)NCCC(C)C)C(=O)c2snc(C(=O)NC3CCCCC3)c2N)c(OC)c1", "Potency": "inconclusive [inhibitor, single point]"}, {"smiles": "CCOC(=O)c1ccc(NC(=O)c2nc[nH]c2C(=O)N(C)Cc2ccccc2)cc1", "Potency": "inconclusive [inhibitor, single point]"}, {"smiles": "O=C(Nc1ccccn1)c1nc(-c2ccccc2)n(-c2ccccc2)n1", "Potency": "inconclusive [inhibitor, single point]"}, {"smiles": "CCN(CC)CCN(C(=O)c1ccc([N+](=O)[O-])cc1)c1nc2c(OC)cccc2s1", "Potency": "inconclusive [inhibitor, partial curve]"}, {"smiles": "CCOC(=O)C1=CCN(S(=O)(=O)c2ccccc2Br)C1c1cccc(C)c1", "note": "(stereo not given)", "Potency": "inconclusive [inhibitor, single point]"}, {"smiles": "C=C(C)Cn1c(=O)c2c(nc3n2CCN3c2ccc(F)cc2)n(C)c1=O", "Potency": "inconclusive [inhibitor, single point]"}, {"smiles": "O=C(CNC(=O)c1cccc(OC(F)F)c1)OCc1cc(=O)n2cc(Br)ccc2n1", "Potency": "inactive"}, {"smiles": "O=S(=O)(Cc1ncc(C(F)(F)F)cc1Cl)c1ccccc1", "Potency": "inconclusive [inhibitor, single point]"}, {"smiles": "CCOc1ccc(NCc2cccn2-c2nnc(N3CCC(C(=O)NCCOC)CC3)s2)cc1", "Potency": "inconclusive [inhibitor, single point]"}, {"smiles": "CN(C)CCNC(=O)/C(=C/c1cccc([N+](=O)[O-])c1)NC(=O)c1ccccc1", "Potency": "inactive"}, {"smiles": "COCC(=O)N1CCC[C@@]2(CCN(C(=O)Nc3cccc(C#N)c3)C2)C1", "Potency": "inactive"}, {"smiles": "COc1ccc(S(=O)(=O)NC(C)C(=O)Nc2ccccc2F)cc1", "note": "(stereo not given)", "Potency": "inactive"}, {"smiles": "CC1(C)Cc2cccc(OCC(=O)N3CCN(c4cccc(C(F)(F)F)c4)CC3)c2O1", "Potency": "inconclusive [inhibitor, single point]"}, {"smiles": "Cc1ccccc1Nc1cc(C(=O)NCc2cccs2)c2ccccc2n1", "Potency": "inconclusive [inhibitor, single point]"}, {"smiles": "CCN(CC)CCNC(=O)c1ccc(NC(=O)c2cc(S(=O)(=O)N3CCCCC3)ccc2C)cc1", "activity change, negative = growth inhibition": "inconclusive: -33% [inhibitor]"}, {"smiles": "COc1ccccc1/C=C/c1nc(C#N)c(NCCc2ccccc2)o1", "Potency": "active: 16.4 µM"}, {"smiles": "CC(C)(C)NC(=O)NC(=O)CSc1ncccn1", "Potency": "inactive"}, {"smiles": "CCN1CCN(C(=O)CCc2nc3ccccc3c(=O)[nH]2)CC1", "Potency": "inactive"}, {"smiles": "CCN(CC(=O)NCc1ccc(Cl)cc1)C(=O)c1ccc(S(=O)(=O)NCc2ccco2)cc1", "Potency": "inconclusive [inhibitor, single point]"}, {"smiles": "O=C(NCC1CC1)c1ccc2c3n(nc2c1)-c1ccc(Cl)cc1CO3", "Potency": "inconclusive [inhibitor, single point]"}, {"smiles": "COc1ccc(CNS(=O)(=O)c2ccc(-c3cnc(C4CC4)o3)cc2)cc1", "Potency": "active: 13 µM"}, {"smiles": "Cc1ccc(-c2cc(-c3ccc(F)cc3)c(C#N)c(N)n2)o1", "Potency": "inconclusive [inhibitor, single point]"}, {"smiles": "CN1C(=O)c2ccccc2N(C)C1c1cccc(O)c1", "note": "(stereo not given)", "Potency": "inactive"}, {"smiles": "CC(C)N(C(=O)[C@H]1C[C@H](CC(=O)NCc2ccco2)C(=O)N2CCc3c([nH]c4cc(CCC(=O)N(C)C)ccc34)[C@]12C)C(C)C", "Potency": "inconclusive [inhibitor, partial curve]"}, {"smiles": "Cc1cc(Oc2ccc(-c3ccccc3)cc2)nc(N2CCOCC2)n1", "Potency": "inconclusive [inhibitor, single point]"}, {"smiles": "CC(C)N(Cc1ccccc1)S(=O)(=O)c1ccc(F)cc1", "Potency": "active: 9.2 µM"}, {"smiles": "COc1ccc(C)cc1N(C)C(=O)c1c2c(nc3ccccc13)C(=O)N(C1CCCCC1)C2", "Potency": "inconclusive [inhibitor, single point]"}, {"smiles": "CC(C)(C)OC(=O)NS(=O)(=O)NOCc1ccccc1", "Potency": "inactive"}, {"smiles": "CN(C(=O)c1cccc(NC(=O)Cc2cccc(NC(=O)C3CCCN(C(=O)C4CCC4)C3)c2)c1)C1CC1", "note": "(stereo not given)", "Potency": "inconclusive [inhibitor, single point]"}, {"smiles": "Cc1ccsc1C(=O)OCC(=O)c1cc2ccccc2o1", "Potency": "inactive"}, {"smiles": "COc1ccc(OC)c(/C=N/Nc2nncn2/N=C/c2cc(OC)ccc2OC)c1", "Potency": "active: 7.31 µM"}, {"smiles": "COc1ccc(-c2c(-c3ccccc3OC)oc3ccccc23)cc1F", "Potency": "inconclusive [inhibitor, single point]"}, {"smiles": "CCCc1ccc(OC(=O)c2ccc(O)cc2Cl)cc1", "Potency": "inconclusive [inhibitor, single point]"}, {"smiles": "Cc1cc(=O)[nH]c(SCC(=O)Nc2ccc(N3CCCCC3)cc2)n1", "Potency": "inconclusive [inhibitor, single point]"}, {"smiles": "Cc1ccc(Nc2c(-c3ccco3)nc3ccccn23)cc1", "Potency": "inconclusive [inhibitor, single point]"}, {"smiles": "C/C(=C\\CCC1(C)C2CC3C(C2)C31C)C(=O)O", "note": "(stereo not given)", "Potency": "inactive"}, {"smiles": "COc1ccccc1NC(=O)CSc1ccc(-c2cccs2)nn1", "Potency": "inconclusive [inhibitor, single point]"}, {"smiles": "COc1ccc(Nc2ncc(C(=O)N3CCN(c4ccc(F)cc4)CC3)c3ccccc23)cc1", "Potency": "active: 5.17 µM"}, {"smiles": "CN(C)c1ccc(CNC(=O)C2Cc3c(-c4ccccc4Oc4ccccc4)ccnc3O2)cc1", "note": "(stereo not given)", "Potency": "inconclusive [inhibitor, single point]"}, {"smiles": "CCOC(=O)CCSc1nnc(-c2cccnc2)n1-c1ccccc1OC", "Potency": "inactive"}, {"smiles": "COc1ccc(S(=O)(=O)N2CCOC2CNC(=O)C(=O)NCCCN(C)C)cc1C", "note": "(stereo not given)", "Potency": "inactive"}, {"smiles": "O=S(=O)(NC1CC1)c1ccc(S(=O)(=O)N(Cc2ccccn2)C2CC2)cc1", "Potency": "inconclusive [inhibitor, single point]"}, {"smiles": "COc1ccc(-c2nc3scc(CCNS(=O)(=O)c4ccc(NC(C)=O)cc4)n3n2)cc1", "Potency": "inconclusive [inhibitor, single point]"}, {"smiles": "O=C(Nc1ccc(F)c(Cl)c1)C1CCCN(C2=NS(=O)(=O)c3ccccc32)C1", "note": "(stereo not given)", "Potency": "inconclusive [inhibitor, single point]"}, {"smiles": "Cc1cc(C)nc(OC(C(=O)O)C(OCCC(C)C)(c2ccccc2)c2ccccc2)n1", "note": "(stereo not given)", "Potency": "inconclusive [inhibitor, single point]"}, {"smiles": "CC(C)Oc1ccc(C(=O)NCC(=O)N2CCN(S(=O)(=O)/C=C/c3ccccc3)CC2)cc1", "Potency": "inconclusive [inhibitor, single point]"}, {"smiles": "COc1ccc(CNC(=O)CN2C(=O)NC(c3ccccc3)(c3ccccc3)C2=O)cc1", "Potency": "inactive"}, {"smiles": "CCOC(=O)C1CCN(C(=O)Nc2cc(Cl)cc(Cl)c2)CC1", "Potency": "inconclusive [inhibitor, single point]"}, {"smiles": "COc1cccc(Cn2c(=O)cnc3cnc(Nc4cccc(OC)c4)nc32)c1", "Potency": "inconclusive [inhibitor, single point]"}, {"smiles": "CC(=O)/C(C#N)=C1\\NC(=O)C(Cc2cc(Cl)ccc2Cl)S1", "note": "(stereo not given)", "Potency": "active: 3.26 µM"}]}]}
